# Source: the supplement of paper PMC8728848
# This is one part of a sample in which the strongest signals are shown more often than they occur.
# B1: LPQ (Mycobacterium tuberculosum), A0A045GNF2 (protein)
# chain: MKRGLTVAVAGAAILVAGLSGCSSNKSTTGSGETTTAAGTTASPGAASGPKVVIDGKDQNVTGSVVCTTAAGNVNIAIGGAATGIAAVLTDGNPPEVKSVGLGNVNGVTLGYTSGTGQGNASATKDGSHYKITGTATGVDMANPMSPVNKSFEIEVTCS
# Legend:
# Experiment in all cases: glycan array binding signal (z-score within array); higher = stronger binding
# Conditions in all cases: glycan notation: IUPAC condensed, linker removed
# [1] = molecular target: Fuc(a1-2)Gal(b1-3)GlcNAc(b1-2)Man(a1-3)[Fuc(a1-2)Gal(b1-3)GlcNAc(b1-2)Man(a1-6)]Man(b1-4)GlcNAc(b1-4)GlcNAc
# [2] = molecular target: Fuc(a1-2)Gal(b1-4)GlcNAc(b1-2)Man(a1-3)[Fuc(a1-2)Gal(b1-4)GlcNAc(b1-2)Man(a1-6)]Man(b1-4)GlcNAc(b1-4)GlcNAc
# [3] = molecular target: Fuc(a1-2)[Gal(a1-3)]Gal(b1-4)GlcNAc(b1-2)Man(a1-3)[Fuc(a1-2)[Gal(a1-3)]Gal(b1-4)GlcNAc(b1-2)Man(a1-6)]Man(b1-4)GlcNAc(b1-4)GlcNAc
# [4] = molecular target: Fuc(a1-2)[GalNAc(a1-3)]Gal(b1-4)GlcNAc
# [5] = molecular target: Fuc(a1-3)[Gal(b1-4)]GlcNAc(b1-2)Man(a1-6)[Gal(b1-4)GlcNAc(b1-2)Man(a1-3)]Man(b1-4)GlcNAc(b1-4)GlcNAc
# [6] = molecular target: Fuc(a1-3)[Neu5Ac(a2-3)]Gal(b1-4)GlcNAc(b1-3)GalNAc
# [7] = molecular target: Gal(a1-3)Gal(b1-4)[Fuc(a1-3)]GlcNAc(b1-2)Man(a1-3)[Gal(a1-3)Gal(b1-4)[Fuc(a1-3)]GlcNAc(b1-2)Man(a1-6)]Man(b1-4)GlcNAc(b1-4)GlcNAc
# [8] = molecular target: Gal(b1-3)Gal(b1-4)GlcNAc(b1-2)Man(a1-3)[Gal(b1-3)Gal(b1-4)GlcNAc(b1-2)Man(a1-6)]Man(b1-4)GlcNAc(b1-4)GlcNAc
# [9] = molecular target: Gal(b1-3)[Fuc(a1-4)]GlcNAc(b1-2)Man(a1-3)[Gal(b1-3)[Fuc(a1-4)]GlcNAc(b1-2)Man(a1-6)]Man(b1-4)GlcNAc(b1-4)GlcNAc
# [10] = molecular target: Gal(b1-4)GlcNAc(b1-2)Man(a1-6)Man(b1-4)GlcNAc(b1-4)GlcNAc
# [11] = molecular target: Gal(b1-4)GlcNAc(b1-3)Gal(b1-4)GlcNAc
# [12] = molecular target: Gal3S(b1-4)[Fuc(a1-3)]Glc
# Gal3S6S(b1-4)GlcNAc = molecular target: Gal3S6S(b1-4)GlcNAc
# [13] = molecular target: GlcNAc(a1-4)Gal(b1-4)GlcNAc
# GlcNAc(b1-4)GlcNAc = molecular target: GlcNAc(b1-4)GlcNAc
# [14] = molecular target: Neu5Ac(a2-3)Gal(b1-3)[Fuc(a1-4)]GlcNAc(b1-3)Gal(b1-3)[Fuc(a1-4)]GlcNAc
# [15] = molecular target: Neu5Ac(a2-3)Gal(b1-4)GlcNAc(b1-2)Man(a1-3)[Neu5Ac(a2-6)Gal(b1-4)GlcNAc(b1-2)Man(a1-6)]Man(b1-4)GlcNAc(b1-4)GlcNAc
# Neu5Ac(a2-6)Gal = molecular target: Neu5Ac(a2-6)Gal
binder,measurement,setting,value
B1,glycan array binding signal (z-score),[1],3.85
same,glycan array binding signal (z-score),[2],-0.251
same,glycan array binding signal (z-score),[3],2.87
same,glycan array binding signal (z-score),[4],-0.119
same,glycan array binding signal (z-score),[5],-0.606
same,glycan array binding signal (z-score),[6],4.19
same,glycan array binding signal (z-score),[7],15.9
same,glycan array binding signal (z-score),[8],0.575
same,glycan array binding signal (z-score),[9],1.6
same,glycan array binding signal (z-score),[10],2.36
same,glycan array binding signal (z-score),[11],-0.242
same,glycan array binding signal (z-score),[12],-0.733
same,glycan array binding signal (z-score),Gal3S6S(b1-4)GlcNAc,-0.26
same,glycan array binding signal (z-score),[13],-0.03
same,glycan array binding signal (z-score),GlcNAc(b1-4)GlcNAc,0.208
same,glycan array binding signal (z-score),[14],-0.302
same,glycan array binding signal (z-score),[15],-0.075
same,glycan array binding signal (z-score),Neu5Ac(a2-6)Gal,-0.395
